{"source": "patent US9266939B2", "about": "“Compositions comprising natriuretic peptides and methods of use thereof” (Alexion Pharmaceuticals, Inc., priority 2010, dated 2016)", "key": {"wild-type mice": {"test_system": "wild-type mice", "details": "mouse, in vivo"}, "NPR-B [1]": {"biological_target": "T1, NPR-B (Homo sapiens, UniProt P20594)", "T1 sequence (P20594 23-1047)": "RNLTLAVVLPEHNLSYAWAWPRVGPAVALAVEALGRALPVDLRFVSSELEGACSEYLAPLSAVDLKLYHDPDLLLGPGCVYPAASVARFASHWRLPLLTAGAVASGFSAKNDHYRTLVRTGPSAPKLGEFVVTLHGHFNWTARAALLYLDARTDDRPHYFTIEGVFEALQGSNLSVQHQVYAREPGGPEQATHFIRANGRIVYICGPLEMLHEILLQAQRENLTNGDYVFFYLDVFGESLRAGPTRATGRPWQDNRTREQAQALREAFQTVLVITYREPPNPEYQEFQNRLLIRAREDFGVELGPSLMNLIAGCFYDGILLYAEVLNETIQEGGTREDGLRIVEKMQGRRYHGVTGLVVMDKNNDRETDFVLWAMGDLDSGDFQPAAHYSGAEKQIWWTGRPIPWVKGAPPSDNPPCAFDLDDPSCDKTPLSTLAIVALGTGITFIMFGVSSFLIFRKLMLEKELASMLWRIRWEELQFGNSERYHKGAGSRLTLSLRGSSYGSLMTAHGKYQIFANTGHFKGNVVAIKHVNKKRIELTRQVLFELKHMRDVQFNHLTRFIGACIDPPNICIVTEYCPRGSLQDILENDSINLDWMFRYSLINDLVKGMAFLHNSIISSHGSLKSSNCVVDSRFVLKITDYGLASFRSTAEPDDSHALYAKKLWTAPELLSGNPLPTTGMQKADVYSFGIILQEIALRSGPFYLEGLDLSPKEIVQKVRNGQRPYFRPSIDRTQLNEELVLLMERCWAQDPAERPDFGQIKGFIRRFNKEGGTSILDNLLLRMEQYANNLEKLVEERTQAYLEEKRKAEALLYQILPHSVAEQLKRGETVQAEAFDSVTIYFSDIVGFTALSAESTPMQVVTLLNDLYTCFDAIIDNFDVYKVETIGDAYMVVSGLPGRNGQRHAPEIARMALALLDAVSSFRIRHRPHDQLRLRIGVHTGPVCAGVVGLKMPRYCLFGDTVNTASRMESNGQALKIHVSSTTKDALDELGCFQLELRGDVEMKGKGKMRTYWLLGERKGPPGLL", "assay": "Whole cell guanylyl cyclase (cGMP) assay, NPR-B", "format": "cell-based", "design": "expressed in transfected cells", "procedure": "HEK293S cells in a semi-confluent 75 cm2 flask are transfected with 30 μg of plasmid DNA coding for the appropriate receptor, e.g., human NPR-B or NPR-A, using Lipofectamine-2000CD. Alternatively, a stable polyclonal HEK293 S cell line expressing either human NPR-B or NPR-A was used. 24 hours after transfection, cells are trypsinized and plated into 48-well plates at 1×10^5 cells/well. Guanylyl cyclase assay is carried out 24 hours post-plating. Cells are first incubated for 30 minutes at 37° C. with serum-free DMEM medium. Then, they are incubated in triplicate with or without increasing concentrations of reference or test proteins in serum-free DMEM supplemented with 1 mM IBMX and 0.5% BSA, at 37° C. for 30 minutes to one hour. CNP serves as a suitable reference for NPR-B, while ANP is a suitable reference for NPR-A. Finally, cells are washed with ice-cold PBS and solubilized in lysis buffer from Catchpoint cGMP kit (Molecular devices). Concentrations of cGMP in lysate are determined using the Catchpoint cGMP kit. Dose-response curves are analysed with GraphPad Prism 5 software using non-linear regression with four-parameter logistic equation."}, "NPR-B [2]": {"biological_target": "NPR-B (Homo sapiens, UniProt P20594)", "assay": "EC50 (nM)"}, "[3]": {"details": "NC2st variants, NPR-B whole cell cGMP assay"}}, "data": [{"molecule": "NC2B: NC2st without the sequence N-terminal to the Fc domain; SEQ ID NO: 504 (protein, Synthetic Construct (NC2B (w/o sig. seq.))) [not shown - human IgG1 Fc]GGGGSGGGGSGGGGSGGLSKGCFGLKLDRIGSMSGLGC", "values": [{"measurement": "hypotensive (hemodynamic) effects", "setting": "wild-type mice", "value": "limited and within an acceptable hemodynamic range at all tested doses"}, {"measurement": "EC50", "setting": "NPR-B [1]; NC2st variants without signal sequence, NPR-B whole cell cGMP assay", "value": 818, "unit": "nM"}, {"measurement": "% Efficiency", "setting": "NPR-B [1]; [3]", "value": 88, "unit": "%"}, {"measurement": "EC50 Ratio versus CNP22", "setting": "NPR-B [1]; [3]", "value": 55.7}, {"measurement": "Rescue Ratio versus CNP22", "setting": "NPR-B [1]; [3]", "value": "79 ± 22"}, {"measurement": "Rescue range", "setting": "NPR-B [1]; concentration producing cGMP as 2.4 nM (lower) and 14 nM (high) CNP22, X: cannot be determined", "value": "187 to 1134", "unit": "nM"}, {"measurement": "EC50", "setting": "NPR-B [2]", "value": 1090, "unit": "nM"}]}]}
